# Results: the supplement of paper PMC8728848
# The other results are listed elsewhere or left out.
# B1: MGL6A (Homo sapiens) (protein)
# chain: MTRTYENFQYLENKVKVQGFKNGPLPLQSLLQRLCSGPCHLLLSLGLGLLLLVIICVVGFQNSKFQRDLVTLRTDFSNFTSNTVAEIQALTSQGSSLEETIASLKAEVEGFKQERQAVHSEMLLRVQQLVQDLKKLTCQVATLNNNGEEASTEGTCCPVNWVEHQDSCYWFSHSGMSWAEAEKYCQLKNAHLVVINSREEQNFVQKYLGSAYTWMGLSDPEGAWKWVDGTDYATGFQNWKPGQPDDWQGHGLGGGEDCAHFTPDGRWNDDVCQRPYHWVCEAGLGQTSQESH
# Key:
# Experiment in all cases: glycan array binding signal (z-score within array); higher = stronger binding
# Settings in all cases: glycan notation: IUPAC condensed, linker removed; mutation: H262T
# Fuc(a1-2)Gal = target: Fuc(a1-2)Gal
# Outline: (§1)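 The binding signal is a Z-score computed within each array. Data were drawn from 3228 arrays in the Consortium for Functional Glycomics database, restricted to those with a known protein sequence. Scores were averaged over arrays of the same protein sequence at different concentrations or buffers, and over linkers, and negative values can be taken as non-binding.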
# Fuc(a1-2)Gal(b1-3)GalNAc = target: Fuc(a1-2)Gal(b1-3)GalNAc
# Outline: as §1
# [1] = target: Fuc(a1-2)Gal(b1-3)GalNAc(a1-3)[Fuc(a1-2)]Gal(b1-4)Glc
# Outline: as §1
# [2] = target: Fuc(a1-2)Gal(b1-3)GalNAc(a1-3)[Fuc(a1-2)]Gal(b1-4)GlcNAc
# Outline: as §1
# [3] = target: Fuc(a1-2)Gal(b1-3)GalNAc(b1-3)Gal
# Outline: as §1
# [4] = target: Fuc(a1-2)Gal(b1-3)GalNAc(b1-3)Gal(a1-4)Gal(b1-4)Glc
# Outline: as §1
# [5] = target: Fuc(a1-2)Gal(b1-3)GalNAc(b1-4)[Neu5Ac(a2-3)]Gal(b1-4)Glc
# Outline: as §1
# Fuc(a1-2)Gal(b1-3)GlcNAc = target: Fuc(a1-2)Gal(b1-3)GlcNAc
# Outline: as §1
# [6] = target: Fuc(a1-2)Gal(b1-3)GlcNAc(b1-2)Man(a1-3)[Fuc(a1-2)Gal(b1-3)GlcNAc(b1-2)Man(a1-6)]Man(b1-4)GlcNAc(b1-4)GlcNAc
# Outline: as §1
# [7] = target: Fuc(a1-2)Gal(b1-3)GlcNAc(b1-2)Man(a1-3)[Fuc(a1-2)Gal(b1-3)GlcNAc(b1-2)Man(a1-6)]Man(b1-4)GlcNAc(b1-4)[Fuc(a1-6)]GlcNAc
# Outline: as §1
# [8] = target: Fuc(a1-2)Gal(b1-3)GlcNAc(b1-3)Gal(b1-4)Glc
# Outline: as §1
# [9] = target: Fuc(a1-2)Gal(b1-3)GlcNAc(b1-3)GalNAc
# Outline: as §1
# [10] = target: Fuc(a1-2)Gal(b1-3)GlcNAc(b1-3)[Fuc(a1-2)Gal(b1-3)GlcNAc(b1-6)]GalNAc
# Outline: as §1
# [11] = target: Fuc(a1-2)Gal(b1-3)GlcNAc(b1-3)[Gal(b1-4)GlcNAc(b1-6)]Gal(b1-4)Glc
# Outline: as §1
# [12] = target: Fuc(a1-2)Gal(b1-3)GlcNAc(b1-3)[Neu5Ac(a2-6)Gal(b1-4)GlcNAc(b1-6)]Gal(b1-4)Glc
# Outline: as §1
# [13] = target: Fuc(a1-2)Gal(b1-3)GlcNAc6S
# Outline: as §1
# [14] = target: Fuc(a1-2)Gal(b1-3)[Fuc(a1-4)]GlcNAc
# Outline: as §1
# [15] = target: Fuc(a1-2)Gal(b1-3)[Fuc(a1-4)]GlcNAc(b1-2)Man(a1-3)[Fuc(a1-2)Gal(b1-3)[Fuc(a1-4)]GlcNAc(b1-2)Man(a1-3)]Man(b1-4)GlcNAc(b1-4)GlcNAc
# Outline: as §1
# [16] = target: Fuc(a1-2)Gal(b1-3)[Fuc(a1-4)]GlcNAc(b1-2)Man(a1-3)[Fuc(a1-2)Gal(b1-3)[Fuc(a1-4)]GlcNAc(b1-2)Man(a1-6)]Man(b1-4)GlcNAc(b1-4)[Fuc(a1-6)]GlcNAc(b1-4)[Fuc(a1-6)]GlcNAc
# Outline: as §1
# [17] = target: Fuc(a1-2)Gal(b1-3)[Fuc(a1-4)]GlcNAc(b1-3)[Fuc(a1-3)[Gal(b1-4)]GlcNAc(b1-6)]Gal(b1-4)Glc
# Outline: as §1
# [18] = target: Fuc(a1-2)Gal(b1-3)[Fuc(a1-4)]GlcNAc(b1-3)[Gal(b1-4)GlcNAc(b1-6)]Gal(b1-4)Glc
# Outline: as §1
# [19] = target: Fuc(a1-2)Gal(b1-4)Fuc(a1-3)]GlcNAc(b1-2)Man(a1-3)[Fuc(a1-2)Gal(b1-4)[Fuc(a1-3)]GlcNAc(b1-2)Man(a1-6)]Man(b1-4)GlcNAc(b1-4)GlcNAc
# Outline: as §1
# Fuc(a1-2)Gal(b1-4)Glc = target: Fuc(a1-2)Gal(b1-4)Glc
# Outline: as §1
# Fuc(a1-2)Gal(b1-4)Glc6S = target: Fuc(a1-2)Gal(b1-4)Glc6S
# Outline: as §1
# Fuc(a1-2)Gal(b1-4)GlcNAc = target: Fuc(a1-2)Gal(b1-4)GlcNAc
# Outline: as §1
# [20] = target: Fuc(a1-2)Gal(b1-4)GlcNAc(b1-2)Man
# Outline: as §1
# [21] = target: Fuc(a1-2)Gal(b1-4)GlcNAc(b1-2)Man(a1-3)[Fuc(a1-2)Gal(b1-4)GlcNAc(b1-2)Man(a1-6)]Man(b1-4)GlcNAc(b1-4)GlcNAc
# Outline: as §1
# [22] = target: Fuc(a1-2)Gal(b1-4)GlcNAc(b1-2)Man(a1-3)[Fuc(a1-2)Gal(b1-4)GlcNAc(b1-2)Man(a1-6)]Man(b1-4)GlcNAc(b1-4)[Fuc(a1-6)]GlcNAc
# Outline: as §1
# [23] = target: Fuc(a1-2)Gal(b1-4)GlcNAc(b1-2)[Fuc(a1-2)Gal(b1-4)GlcNAc(b1-4)]Man(a1-3)[Fuc(a1-2)Gal(b1-4)GlcNAc(b1-2)Man(a1-6)]Man(b1-4)GlcNAc(b1-4)GlcNAc
# Outline: as §1
# [24] = target: Fuc(a1-2)Gal(b1-4)GlcNAc(b1-3)Gal(b1-4)GlcNAc
# Outline: as §1
binder,measurement,setting,value
B1,glycan array binding signal (z-score),Fuc(a1-2)Gal,-0.173
same,glycan array binding signal (z-score),Fuc(a1-2)Gal(b1-3)GalNAc,-0.175
same,glycan array binding signal (z-score),[1],-0.173
same,glycan array binding signal (z-score),[2],-0.171
same,glycan array binding signal (z-score),[3],-0.173
same,glycan array binding signal (z-score),[4],-0.179
same,glycan array binding signal (z-score),[5],-0.173
same,glycan array binding signal (z-score),Fuc(a1-2)Gal(b1-3)GlcNAc,-0.17
same,glycan array binding signal (z-score),[6],-0.148
same,glycan array binding signal (z-score),[7],-0.165
same,glycan array binding signal (z-score),[8],-0.169
same,glycan array binding signal (z-score),[9],-0.173
same,glycan array binding signal (z-score),[10],-0.167
same,glycan array binding signal (z-score),[11],-0.175
same,glycan array binding signal (z-score),[12],-0.174
same,glycan array binding signal (z-score),[13],-0.156
same,glycan array binding signal (z-score),[14],-0.175
same,glycan array binding signal (z-score),[15],-0.166
same,glycan array binding signal (z-score),[16],-0.174
same,glycan array binding signal (z-score),[17],-0.176
same,glycan array binding signal (z-score),[18],-0.175
same,glycan array binding signal (z-score),[19],-0.162
same,glycan array binding signal (z-score),Fuc(a1-2)Gal(b1-4)Glc,-0.176
same,glycan array binding signal (z-score),Fuc(a1-2)Gal(b1-4)Glc6S,-0.168
same,glycan array binding signal (z-score),Fuc(a1-2)Gal(b1-4)GlcNAc,-0.174
same,glycan array binding signal (z-score),[20],-0.178
same,glycan array binding signal (z-score),[21],-0.167
same,glycan array binding signal (z-score),[22],-0.161
same,glycan array binding signal (z-score),[23],-0.185
same,glycan array binding signal (z-score),[24],-0.176
